# Assay results from PubChem BioAssay AID588579 (National Center for Advancing Translational Sciences (NCATS), 2011).
# Where “and” joins values, the source holds several entries; their conditions need not be identical. Identical values can stand only once. In all, about 400,000 compounds went through this assay and about 2,200 (0.55%) were called active. The inconclusive results got no clear call from the source; some entries with a clear call stand among them for comparison. The call rests on the fitted dose curve; in most records, active means well fitted inhibition curve with a large enough effect; inconclusive means small, poorly fitted or top-dose-only effect, or another doubt; inactive means no such curve, though single readings can be large or run the other way. Potencies beside an inconclusive call are fits to weak or partial responses and may not hold up.
# Target: DNA polymerase kappa (Homo sapiens) (UniProt Q9UBT6)
# Assay: qHTS for Inhibitors of Polymerase Kappa
# Details: purified Pol kappa, fluorescent DNA synthesis assay, 10 min; series mostly up to 107 µM
# How it was run: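 Readout: fluorescence, taken kinetically at 0 and 10 min. Conditions: 10 nM Pol kappa, 15 min RT compound preincubation, 50 nM substrate final. Controls: enzyme-free buffer wells.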
# Potency means the concentration at half of the fitted maximal effect; tags describe the fitted curve by direction and shape.
# Sequence of UniProt Q9UBT6 (Q9UBT6 whole entry, looked up): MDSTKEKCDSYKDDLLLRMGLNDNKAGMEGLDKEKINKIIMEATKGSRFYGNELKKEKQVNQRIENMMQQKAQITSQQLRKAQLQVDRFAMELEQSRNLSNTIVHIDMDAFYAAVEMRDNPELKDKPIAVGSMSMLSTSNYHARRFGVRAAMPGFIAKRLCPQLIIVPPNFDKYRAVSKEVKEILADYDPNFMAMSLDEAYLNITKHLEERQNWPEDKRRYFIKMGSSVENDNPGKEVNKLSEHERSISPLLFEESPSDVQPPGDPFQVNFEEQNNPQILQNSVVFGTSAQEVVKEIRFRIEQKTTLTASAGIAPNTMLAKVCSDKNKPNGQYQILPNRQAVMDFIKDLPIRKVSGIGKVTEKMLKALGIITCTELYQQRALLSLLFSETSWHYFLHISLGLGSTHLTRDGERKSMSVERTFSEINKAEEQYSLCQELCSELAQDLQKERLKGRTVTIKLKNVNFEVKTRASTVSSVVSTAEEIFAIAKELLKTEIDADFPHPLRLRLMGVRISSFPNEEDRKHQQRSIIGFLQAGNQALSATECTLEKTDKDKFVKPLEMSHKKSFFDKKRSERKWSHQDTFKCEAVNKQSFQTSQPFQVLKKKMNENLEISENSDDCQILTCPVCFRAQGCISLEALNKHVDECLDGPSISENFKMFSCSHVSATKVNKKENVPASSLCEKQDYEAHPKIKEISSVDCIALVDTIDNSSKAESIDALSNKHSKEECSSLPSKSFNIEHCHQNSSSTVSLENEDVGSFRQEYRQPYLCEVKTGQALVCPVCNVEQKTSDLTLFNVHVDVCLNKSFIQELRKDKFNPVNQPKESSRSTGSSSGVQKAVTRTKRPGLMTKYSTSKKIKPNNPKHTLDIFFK
row,SMILES,Potency
1,N#Cc1ccsc1NC(=O)CSc1ncnc2ccccc12,"inconclusive: 79.4 µM [inhibitor, single point]"
2,O=C1CC(c2ccccc2)=NN1c1nc(-c2ccccc2)cs1,active: 39.8 µM
3,O=c1ccc(-c2ccccc2)nn1Cc1ccc(F)cc1Cl,"inconclusive: 3.98 µM [inhibitor, partial curve, poor fit]"
4,Cc1cc(C(=O)CSc2nnc3ccccn23)c(C)n1-c1ccccc1,inactive
5,O=C1c2c(O)cc(O)cc2OC(c2ccc(O)c(O)c2)C1O (stereo not given),active: 1.58 µM and active: 5.97 µM
6,CC1CCCCN1C(=O)CN1C(=O)c2ccccc2S1(=O)=O (stereo not given),inactive
7,O=C(CSC(=S)N1CCCC1)c1cc(Br)cc(Br)c1O,"inconclusive: 79.4 µM [inhibitor, single point]"
8,C=C(C)C1CC=C(C)C(O)C1 (stereo not given),inactive
9,Cc1ccc(S(=O)(=O)NCC(=O)N(CC(=O)NCc2ccco2)Cc2ccco2)cc1,"inconclusive: 89.1 µM [inhibitor, single point]"
10,C=CCOc1c(OC)cc(/C=N/Nc2cccc(C(=O)O)c2)c(Br)c1Br,"inconclusive: 89.1 µM [inhibitor, partial curve, poor fit]"
11,CCN(CC)c1ccc(/C=C2/C(=O)c3ccc(C(=O)O)cc3C2=O)cc1,active: 79.4 µM
12,Cc1ccc2nc(COc3ccc(N(C)S(=O)(=O)c4ccccc4)cc3)cc(=O)n2c1,"inconclusive: 56.2 µM [inhibitor, partial curve, poor fit]"
13,O=C(O)CCN1CC2([N+](=O)[O-])C=CC(=O)C([N+](=O)[O-])(C1)C2CC(=O)c1ccccc1 (stereo not given),"inconclusive: 89.1 µM [inhibitor, single point]"
14,CCNc1nc2c(c(=O)n(Cc3ccccc3)c(=O)n2C)n1Cc1ccccc1,"inconclusive: 89.1 µM [inhibitor, single point]"
15,O=C(O)CCCCCN1C(=O)/C(=C\c2ccc(-c3ccc(Cl)cc3)o2)SC1=S,active: 79.4 µM
16,Cc1ccc(S(=O)(=O)N2CCN(C(=O)c3ccco3)CC2)cc1,inactive
17,Cc1cc(C(F)(F)F)nn1Cc1ccc(C(=O)NCc2ccco2)o1,"inconclusive: 100 µM [inhibitor, single point]"
18,O=C(O)c1ccc(-n2c(O)c(C=C3N=c4ccccc4=N3)sc2=S)cc1,"inconclusive: 100 µM [inhibitor, single point]"
19,CCOC(=O)c1c(C)[nH]c(C)c1C(=O)COC(=O)c1ccc([N+](=O)[O-])s1,active: 79.4 µM
20,Cc1ccc(/C=C/C(=O)Nc2ccc([N+](=O)[O-])c(NC(=O)/C=C/c3ccc(C)o3)c2)o1,active: 28.2 µM
